# Measurements as given in the supplement of paper PMC8728848.
# This is one part of the list.
# Columns and labels:
# Test in all cases: glycan array binding signal (z-score within array); higher = stronger binding
# Settings in all cases: glycan notation: IUPAC condensed, linker removed
# [1] = target: Fuc(a1-2)Gal(b1-4)[Fuc(a1-3)]GlcNAc(b1-2)[Fuc(a1-2)Gal(b1-4)[Fuc(a1-3)]GlcNAc(b1-4)]Man(a1-3)[Fuc(a1-2)Gal(b1-4)[Fuc(a1-3)]GlcNAc(b1-2)Man(a1-6)]Man(b1-4)GlcNAc(b1-4)GlcNAc
# How it was run: (§1)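 Arrays were curated from the Consortium for Functional Glycomics database, 3228 in total, and kept only where the protein sequence was available. Binding is expressed as a within-array Z-score. This score was averaged across arrays of the same protein sequence at different concentrations or buffers and across linkers, and negative values can be read as non-binding.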
# [2] = target: Fuc(a1-2)Gal(b1-4)[Fuc(a1-3)]GlcNAc(b1-3)Gal(b1-4)[Fuc(a1-3)]GlcNAc
# How it was run: as §1
# [3] = target: Fuc(a1-2)Gal(b1-4)[Fuc(a1-3)]GlcNAc(b1-3)Gal(b1-4)[Fuc(a1-3)]GlcNAc(b1-3)Gal(b1-4)[Fuc(a1-3)]GlcNAc
# How it was run: as §1
# [4] = target: Fuc(a1-2)Gal(b1-4)[Fuc(a1-3)]GlcNAc(b1-3)GalNAc
# How it was run: as §1
# Fuc(a1-2)Gal6S(b1-4)Glc = target: Fuc(a1-2)Gal6S(b1-4)Glc
# How it was run: as §1
# [5] = target: Fuc(a1-2)Gal6S(b1-4)Glc6S
# How it was run: as §1
# [6] = target: Fuc(a1-2)Gal6S(b1-4)GlcNAc
# How it was run: as §1
# Fuc(a1-2)[Gal(a1-3)]Gal = target: Fuc(a1-2)[Gal(a1-3)]Gal
# How it was run: as §1
# [7] = target: Fuc(a1-2)[Gal(a1-3)]Gal(b1-3)GlcNAc
# How it was run: as §1
# [8] = target: Fuc(a1-2)[Gal(a1-3)]Gal(b1-3)GlcNAc(b1-2)Man(a1-3)[Fuc(a1-2)[Gal(a1-3)]Gal(b1-3)GlcNAc(b1-2)Man(a1-6)]Man(b1-4)GlcNAc(b1-4)GlcNAc
# How it was run: as §1
# [9] = target: Fuc(a1-2)[Gal(a1-3)]Gal(b1-3)GlcNAc(b1-3)GalNAc
# How it was run: as §1
# [10] = target: Fuc(a1-2)[Gal(a1-3)]Gal(b1-4)Glc
# How it was run: as §1
# [11] = target: Fuc(a1-2)[Gal(a1-3)]Gal(b1-4)GlcNAc
# How it was run: as §1
# [12] = target: Fuc(a1-2)[Gal(a1-3)]Gal(b1-4)GlcNAc(b1-2)Man(a1-3)[Fuc(a1-2)[Gal(a1-3)]Gal(b1-4)GlcNAc(b1-2)Man(a1-6)]Man(b1-4)GlcNAc(b1-4)GlcNAc
# How it was run: as §1
# [13] = target: Fuc(a1-2)[Gal(a1-3)]Gal(b1-4)GlcNAc(b1-2)Man(a1-3)[Fuc(a1-2)[Gal(a1-3)]Gal(b1-4)GlcNAc(b1-2)Man(a1-6)]Man(b1-4)GlcNAc(b1-4)[Fuc(a1-6)]GlcNAc
# How it was run: as §1
# [14] = target: Fuc(a1-2)[Gal(a1-3)]Gal(b1-4)GlcNAc(b1-3)GalNAc
# How it was run: as §1
# [15] = target: Fuc(a1-2)[Gal(a1-3)]Gal(b1-4)[Fuc(a1-3)]Glc
# How it was run: as §1
# [16] = target: Fuc(a1-2)[Gal(a1-3)]Gal(b1-4)[Fuc(a1-3)]GlcNAc
# How it was run: as §1
# [17] = target: Fuc(a1-2)[Gal(a1-3)]Gal(b1-4)[Fuc(a1-3)]GlcNAc(b1-3)GalNAc
# How it was run: as §1
# [18] = target: Fuc(a1-2)[Gal(a1-4)]Gal(b1-4)GlcNAc
# How it was run: as §1
# [19] = target: Fuc(a1-2)[GalNAc(a1-3)]Gal
# How it was run: as §1
# [20] = target: Fuc(a1-2)[GalNAc(a1-3)]Gal(b1-3)GalNAc(a1-3)[Fuc(a1-2)]Gal(b1-4)GlcNAc
# How it was run: as §1
# [21] = target: Fuc(a1-2)[GalNAc(a1-3)]Gal(b1-3)GlcNAc
# How it was run: as §1
# [22] = target: Fuc(a1-2)[GalNAc(a1-3)]Gal(b1-3)GlcNAc(b1-2)Man(a1-3)[Fuc(a1-2)[GalNAc(a1-3)]Gal(b1-3)GlcNAc(b1-2)Man(a1-6)]Man(b1-4)GlcNAc(b1-4)GlcNAc
# How it was run: as §1
# [23] = target: Fuc(a1-2)[GalNAc(a1-3)]Gal(b1-3)GlcNAc(b1-3)GalNAc
# How it was run: as §1
# [24] = target: Fuc(a1-2)[GalNAc(a1-3)]Gal(b1-4)Glc
# How it was run: as §1
# [25] = target: Fuc(a1-2)[GalNAc(a1-3)]Gal(b1-4)GlcNAc
# How it was run: as §1
# [26] = target: Fuc(a1-2)[GalNAc(a1-3)]Gal(b1-4)GlcNAc(b1-2)Man(a1-3)[Fuc(a1-2)[GalNAc(a1-3)]Gal(b1-4)GlcNAc(b1-2)Man(a1-6)]Man(b1-4)GlcNAc(b1-4)GlcNAc
# How it was run: as §1
# [27] = target: Fuc(a1-2)[GalNAc(a1-3)]Gal(b1-4)GlcNAc(b1-3)Gal(b1-4)GlcNAc
# How it was run: as §1
# [28] = target: Fuc(a1-2)[GalNAc(a1-3)]Gal(b1-4)GlcNAc(b1-3)Gal(b1-4)GlcNAc(b1-3)Gal(b1-4)GlcNAc
# How it was run: as §1
# [29] = target: Fuc(a1-2)[GalNAc(a1-3)]Gal(b1-4)GlcNAc(b1-3)GalNAc
# How it was run: as §1
# [30] = target: Fuc(a1-2)[GalNAc(a1-3)]Gal(b1-4)[Fuc(a1-3)]GlcNAc
# How it was run: as §1
# [31] = target: Fuc(a1-2)[GalNAc(a1-3)]Gal(b1-4)[Fuc(a1-3)]GlcNAc(b1-3)GalNAc
# How it was run: as §1
# [32] = target: Fuc(a1-2)[GalNAc(a1-4)]Gal(b1-4)GlcNAc
# How it was run: as §1
# [33] = target: Fuc(a1-2)[GalNAc(b1-3)]Gal
# How it was run: as §1
# Fuc(a1-3)GlcNAc = target: Fuc(a1-3)GlcNAc
# How it was run: as §1
# [34] = target: Fuc(a1-3)[Gal(b1-4)]Glc6S
# How it was run: as §1
binder,measurement,setting,value
"LSectin (Mus musculus), Q8BNX1 (protein) MNTGEYNKLGSAIEEVSRGQLGRWECYKQRLFFLVLALLVATVLWALILSTLLSSASSKLRVLLSHQDLLRTNASEQKMTLSSLKDDIGACRNCCSVTKAQLQTTLAEFKDIQAKLMEQESILKELQERVTQDLAKASRDRENIRSELFQALEAVKRQNSSCEQCPPSWLPFQGSCYYFSETQATWDTAQSYCGGQGAHLVIVRGLNEQGFLSQHTRGRGYWLGLRAVRHLNKIQGYRWVDGASLNFSHWNSGEPNDSRGHEDCIMMLHSGLWNDAPCTNERDGWICEKRSSCY",glycan array binding signal (z-score),[1],0.069
same,glycan array binding signal (z-score),[2],-0.012
same,glycan array binding signal (z-score),[3],0.067
same,glycan array binding signal (z-score),[4],-0.154
same,glycan array binding signal (z-score),Fuc(a1-2)Gal6S(b1-4)Glc,-0.139
same,glycan array binding signal (z-score),[5],-0.129
same,glycan array binding signal (z-score),[6],-0.139
same,glycan array binding signal (z-score),Fuc(a1-2)[Gal(a1-3)]Gal,-0.145
same,glycan array binding signal (z-score),[7],-0.148
same,glycan array binding signal (z-score),[8],-0.184
same,glycan array binding signal (z-score),[9],-0.188
same,glycan array binding signal (z-score),[10],-0.168
same,glycan array binding signal (z-score),[11],-0.164
same,glycan array binding signal (z-score),[12],-0.191
same,glycan array binding signal (z-score),[13],-0.178
same,glycan array binding signal (z-score),[14],-0.187
same,glycan array binding signal (z-score),[15],-0.124
same,glycan array binding signal (z-score),[16],-0.127
same,glycan array binding signal (z-score),[17],-0.183
same,glycan array binding signal (z-score),[18],-0.057
same,glycan array binding signal (z-score),[19],-0.156
same,glycan array binding signal (z-score),[20],-0.189
same,glycan array binding signal (z-score),[21],-0.162
same,glycan array binding signal (z-score),[22],-0.189
same,glycan array binding signal (z-score),[23],-0.179
same,glycan array binding signal (z-score),[24],-0.174
same,glycan array binding signal (z-score),[25],-0.176
same,glycan array binding signal (z-score),[26],-0.18
same,glycan array binding signal (z-score),[27],-0.185
same,glycan array binding signal (z-score),[28],-0.183
same,glycan array binding signal (z-score),[29],-0.189
same,glycan array binding signal (z-score),[30],-0.13
same,glycan array binding signal (z-score),[31],-0.179
same,glycan array binding signal (z-score),[32],-0.131
same,glycan array binding signal (z-score),[33],-0.153
same,glycan array binding signal (z-score),Fuc(a1-3)GlcNAc,-0.135
same,glycan array binding signal (z-score),[34],-0.159
